From patent CN109678958A

Columns and labels:
[1] = target: 重组人NT-proBNP (recombinant human N-terminal pro-brain natriuretic peptide, bought from 重庆探生科技有限公司) (human) (UniProt P16860); test: sandwich ELISA, m1 coated at 5 ug/mL, NT-proBNP 35 ng/L, detection HRP-6C7
[2] = target: 重组人NT-proBNP (recombinant human N-terminal pro-brain natriuretic peptide, bought from 重庆探生科技有限公司) (human) (UniProt P16860); test: sandwich ELISA, m1 coated at 5 ug/mL, NT-proBNP 17.5 ng/L, detection HRP-6C7
[3] = target: 重组人NT-proBNP (recombinant human N-terminal pro-brain natriuretic peptide, bought from 重庆探生科技有限公司) (human) (UniProt P16860); test: sandwich ELISA, m1 coated at 5 ug/mL, NT-proBNP 8.75 ng/L, detection HRP-6C7
[4] = target: 重组人NT-proBNP (recombinant human N-terminal pro-brain natriuretic peptide, bought from 重庆探生科技有限公司) (human) (UniProt P16860); test: sandwich ELISA, m1 coated at 5 ug/mL, NT-proBNP 4.375 ng/L, detection HRP-6C7
[5] = target: 重组人NT-proBNP (recombinant human N-terminal pro-brain natriuretic peptide, bought from 重庆探生科技有限公司) (human) (UniProt P16860); test: sandwich ELISA, m1 coated at 5 ug/mL, NT-proBNP 2.1875 ng/L, detection HRP-6C7
[6] = target: 重组人NT-proBNP (recombinant human N-terminal pro-brain natriuretic peptide, bought from 重庆探生科技有限公司) (human) (UniProt P16860); test: sandwich ELISA, m1 coated at 5 ug/mL, NT-proBNP 1.09375 ng/L, detection HRP-6C7
[7] = target: 重组人NT-proBNP (recombinant human N-terminal pro-brain natriuretic peptide, bought from 重庆探生科技有限公司) (human) (UniProt P16860); test: sandwich ELISA, m1 coated at 5 ug/mL, NT-proBNP 0.273438 ng/L, detection HRP-6C7
[8] = target: 重组人NT-proBNP (recombinant human N-terminal pro-brain natriuretic peptide, bought from 重庆探生科技有限公司) (human) (UniProt P16860); test: sandwich ELISA, m1 coated at 5 ug/mL, NT-proBNP 0.546875 ng/L, detection HRP-6C7

Chain of UniProt P16860 (P16860 27-102): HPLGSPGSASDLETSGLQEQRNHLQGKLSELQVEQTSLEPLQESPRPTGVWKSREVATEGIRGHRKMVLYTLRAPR

A450 (absorbance at 450 nm) [1]: 2.84
A450 (absorbance at 450 nm) [2]: 1.64
A450 (absorbance at 450 nm) [3]: 1.06
A450 (absorbance at 450 nm) [4]: 0.494
A450 (absorbance at 450 nm) [5]: 0.242
A450 (absorbance at 450 nm) [6]: 0.162
A450 (absorbance at 450 nm) [7]: 0.09
A450 (absorbance at 450 nm) [8]: 0.103
B1: 人NT-proBNP特异性重组羊单克隆抗体 (sheep scFv fused to human IgG Fc, expressed from pcDNA3.1-NT in 293F cells) (Fc fusion)
chain: MALSQVRLQESGPSLVKPSQTLSLTCTVSGPSLTDYDVDWVRQAPGKALEWLGFINQGAPTGYDPALKSRLSITRDTSKSQVSLSLSSMTAEDTAVYYCARGAILGWGRGLLVTVSSQGSTSGSGKPGSGEGSTKGGQAVLTQPASVSGSPGQTVTISCTGTSGDIAGYNLVGWYQQLPNSAPKTLIYDVSTRRSGIPARFSGSKSGNTATLTISGLQAEDEADYYCSTSISANSVGFGSGTRLTVLGQPKSAPS[letters of human IgG4 Fc not shown]
